Source: PubChem BioAssay AID686971 (National Center for Advancing Translational Sciences (NCATS), 2013)
Hit rate of the full screen: of about 360,000 compounds, about 7,500 (2.1%) were called active. The shares of active, inactive and inconclusive entries below differ from those in the screen. Calls follow the shape of the dose curve; as a rule, active = well fitted cell-killing curve with a large enough effect; inconclusive = small, poorly fitted or top-dose-only effect, or effect the other way, or another doubt; inactive = no such curve, though single readings can be large or run the other way. No potency is given beside an inconclusive call; the fits are too rough.

test: qHTS for induction of synthetic lethality in tumor cells producing 2HG: qHTS for the HT-1080-IDH1KD cell line; settings: HT-1080 IDH1 knockdown viability, ATP luminescence, 48 h; activity, negative = toxicity: at 46.1 µM (top of the series) unless noted;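 as to activity, negative = toxicity: 0% = DMSO wells and -100% = cell-free medium wells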
Method in brief: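 Knockdown cells (IDH1KD HT-1080) received compounds 2 h after plating at 750 cells/well and were kept 48 h at 37 °C in 5% FBS RPMI. A CellTiter-Glo luminescence read gave % activity for curve fitting.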
Potency is read from the fitted curve at half-maximal effect; tags tell the direction and shape of the fitted curve.

Compound	activity, negative = toxicity	Potency
Cc1ccccc1OCCCN1CCCC1	inactive: -0.693%	
O=C(NCCN1CCC(n2c(=O)[nH]c3ccccc32)CC1)C(c1ccccc1)c1ccccc1		inconclusive [cytotoxic, single point]
CN(C(=O)COC(=O)c1ccc(=O)n(Cc2ccccc2)n1)C1CCCCC1	inactive: 6.73%	
COc1ccc(OC)c(-c2nc3c(C)n[nH]c(=O)c3[nH]2)c1		inconclusive [cytotoxic, single point]
CN1CCN(C(c2ccc(C(F)(F)F)cc2)c2ccc3cccnc3c2O)CC1 (stereo unspecified)		inconclusive [cytotoxic, partial curve]
O=C(NC(NC(=S)Nc1ccccc1Cl)C(Cl)(Cl)Cl)c1cccc(Cl)c1 (stereo unspecified)		inconclusive [cytotoxic, single point]
Cc1ccc(C(Sc2ccccc2)C(Cn2cncn2)C(=O)c2ccccc2)cc1 (stereo unspecified)		inconclusive [cytotoxic, single point]
C[C@@H](C(=O)Nc1nc(-c2ccccn2)cs1)N1C(=O)C2CCCCC2C1=O (stereo partly specified)	inactive: -2.12% [at 9.24 µM]	
CC(=O)Nn1cnc2c(c1=O)C1(CCCC1)Cc1ccccc1-2		inconclusive [cytotoxic, single point]
CC(C)(C)c1ccc(CSc2nc(N)cc(=O)[nH]2)cc1		inconclusive [cytotoxic, partial curve]
CCOc1ccc(S(=O)(=O)Nc2cc(Cl)ccc2O)cc1		active: 23.1 µM
CCCc1ccc(NC(=O)C2CCCN(c3cnccn3)C2)cc1 (stereo unspecified)	inactive: 1.22%	
COc1ccc(C(=O)/C=C/c2ccccc2)c(OC)c1		inconclusive [cytotoxic, single point]
O=C(CNc1ccc2ccccc2c1)N/N=C/c1ccc([N+](=O)[O-])o1		inconclusive [cytotoxic, single point]
O=C(CCN1C(=O)/C(=C/c2ccccc2Cl)SC1=S)NNC(=O)c1ccccc1O		inconclusive [cytotoxic, partial curve]
CC1(C)CC(NC(=O)c2ccc(Cl)c(S(=O)(=O)N(Cc3ccccc3)c3ccccc3)c2)CC(C)(C)N1	inactive: -24.3%	
O=C(Nc1nc2ccccc2[nH]1)C1CCC1		inconclusive [cytotoxic, single point]
O=C(/C=C/c1ccncc1)c1ccc2c(c1)OCCO2		active: 18.4 µM
COc1ccc(-c2c(C)[nH]n3c(=O)c(Cc4ccccc4)c(C)nc23)cc1OC		inconclusive [cytotoxic, full curve]
COC(=O)[C@@]12C[C@@H](CC(=O)N3CCSCC3)C(=O)N(Cc3cccc4ccccc34)C1=CCC(C)(C)C2		inconclusive [cytotoxic, partial curve]
COc1ccc(/C=C/C(=O)NC(=S)NNC(=O)c2cccs2)cc1OC		inconclusive [cytotoxic, partial curve]
O=C(CCl)N1N=C(c2cccs2)CC1c1ccco1 (stereo unspecified)		active: 4.11 µM
Cc1cc(C)c(-c2cc(NC(=O)CSc3n[nH]c(N)n3)n(-c3ccccc3)n2)cc1C		inconclusive [cytotoxic, single point]

Compound	activity, negative = toxicity	Potency
COc1cccc([C@@H]2Oc3ccc(Br)cc3C(=O)[C@H]2OC(=O)NC2CCCC2)c1		inconclusive [cytotoxic, single point]
Cc1[nH]c2ccccc2c1C1(O)C(=O)N(C(C)C)c2ccccc21 (stereo unspecified)	inactive: 0.201%	
CCn1c(=O)c2c(nc(SCC(=O)NC3CCCC3)n2C)n(C)c1=O	inactive: 8.39%	
Oc1ccc(N2CCN(C(c3cccs3)c3nnnn3CCc3ccccc3)CC2)cc1 (stereo unspecified)		inconclusive [cytotoxic, single point]
CC(C)c1cccc(-c2csc(C(C)(O)c3ccncc3)n2)c1 (stereo unspecified)		inconclusive [cytotoxic, single point]
O=C(NCCOc1ccccc1F)c1cc([N+](=O)[O-])ccc1N1CCOCC1		active: 8.2 µM
N#CN=C(N)c1ccccc1	inconclusive: 7.71%	
CCn1c(=O)c(C(=O)Nc2nc3ccccc3[nH]2)c(O)c2ccccc21		active: 10.3 µM
COc1ccc(C(=O)N(Cc2sccc2C)C2CCS(=O)(=O)C2)cc1 (stereo unspecified)	inactive: 0.411%	
Cc1cc(C)n(CCC(=O)N/N=C/c2c(O)ccc3ccccc23)n1		inconclusive [cytotoxic, full curve]
COc1cccc(NC(=O)[C@H](Cc2c[nH]c3ccccc23)NC(=O)[C@@H]2Cc3ccccc3CN2)c1		inconclusive [cytotoxic, single point]
COc1cc2c(cc1OC)C(C(=O)NCCN(C)C)C(c1cccs1)N(C)C2=O (stereo unspecified)	inactive: 7.27%	
CC(=O)/C(N=Nc1cccc(C(F)(F)F)c1)=C(\C)O	inactive: 13.9%	
Cc1nn(C)c(C(=O)NNC(=S)Nc2ccc(F)cc2)c1[N+](=O)[O-]		inconclusive [cytotoxic, partial curve, poor fit]
N#Cc1ccc(Cl)cc1NC(=O)COC(=O)[C@H](CCC(N)=O)NC(=O)c1ccc(F)cc1	inactive: -1.72%	
CCn1c(C)cc2c(c1=O)C(c1ccccc1)C(C(=O)OC)=C(N)O2 (stereo unspecified)		inconclusive [cytotoxic, single point]
COc1cc2c(cc1OC)C(C)N(C(=O)c1ccc(C)o1)CC2 (stereo unspecified)		inconclusive [cytotoxic, partial curve]
CN(C)CCCN(C(=O)c1ccc(S(=O)(=O)N2CCc3ccccc3C2)cc1)c1nc2ccc(F)cc2s1		active: 16.4 µM
Cc1cnc(NC(=O)COc2ccccc2)s1	inconclusive: -34.9% [cytotoxic]	
CCCCCC(O)(c1ccc(OCC)cc1)C(CN1CCOCC1)c1ccccc1 (stereo unspecified)		active: 16.4 µM
Cc1ccc(-n2c(-c3c(-c4ccccc4)noc3C)n[nH]c2=S)cc1		inconclusive [cytotoxic, single point]
C/C(=N\N=C(N)N)c1ccc(Cl)cc1Cl		active: 20.6 µM
N#Cc1cc2c(nc1SCC(=O)Nc1nccs1)CCCCC2		inconclusive [cytotoxic, single point]
